Experimental data as given in PMC12820563, “FoxP3 forms a head-to-head dimer in vivo and stabilizes its multimerization on adjacent microsatellites”.
This is one part of the list.

What follows are sequences tested against T1, MBP-FoxP1dN (Mus musculus, UniProt P58462 326-579) (assay: PD-seq (MBP pull-down with sequencing); 20 mM Tris-HCl pH 7.5, 100 mM NaCl, 1.5 mM MgCl2, 0.4 uM protein, 0.1 uM dsDNA library, 30 min, room temperature, amylose pull-down; high values mean tight binding). Settings: protein: recombinant; tags: His6-MBP; chain copies: 2; dsDNA, one strand shown.
T1 sequence: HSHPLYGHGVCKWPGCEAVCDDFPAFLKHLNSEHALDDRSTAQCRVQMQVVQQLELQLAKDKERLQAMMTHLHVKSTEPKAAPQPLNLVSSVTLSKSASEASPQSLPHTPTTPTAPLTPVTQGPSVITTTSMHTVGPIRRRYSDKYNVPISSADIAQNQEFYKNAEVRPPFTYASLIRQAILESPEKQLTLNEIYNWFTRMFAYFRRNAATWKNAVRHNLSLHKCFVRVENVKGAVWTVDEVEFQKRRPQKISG
Summary of the method: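 Binding is reads-per-million enrichment of pull-down over input, with replicates pooled. It comes from 30 min room-temperature incubation in Tris pH 7.5 buffer with NaCl and MgCl2 of 0.4 µM His6-MBP-tagged, N-terminally truncated mouse FoxP3 or FoxP1 fragment from E. coli with 0.1 µM Klenow-filled degenerate double-stranded DNA library, followed by amylose resin capture, three washes and Illumina sequencing of the released DNA.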

Sequence | binding signal
GATGATTGTTCTCCCAGCTGATGAATTTAAGAGCTCGAGTAAACAAATTTTCCTAATCTTTCTGTTCAAGCGCCATCTAC | 0.768 RPM ratio (pull-down/input)
GATGATTGTTCTCCCAGCTGATGAATTGAGTTTGTCGAGTAAACAAATTTTCCTAATCTTTCTGTTCAAGCGCCATCTAC | 1.2 RPM ratio (pull-down/input)
GATGATTGTTCTCCCAGCTGATGAATTATATAAGTCGAGTAAACAAATTTTCCTAATCTTTCTGTTCAAGCGCCATCTAC | 1.13 RPM ratio (pull-down/input)
GATGATTGTTCTCCCAGCTGATGAATTCGTTGCTTCGAGTAAACAAATTTTCCTAATCTTTCTGTTCAAGCGCCATCTAC | 0.913 RPM ratio (pull-down/input)
GATGATTGTTCTCCCAGCTGATGAATTGTACGCATCGAGTAAACAAATTTTCCTAATCTTTCTGTTCAAGCGCCATCTAC | 1.12 RPM ratio (pull-down/input)
GATGATTGTTCTCCCAGCTGATGAATTCGACCATTCGAGTAAACAAATTTTCCTAATCTTTCTGTTCAAGCGCCATCTAC | 0.941 RPM ratio (pull-down/input)
GATGATTGTTCTCCCAGCTGATGAATTGGAGGCCTCGAGTAAACAAATTTTCCTAATCTTTCTGTTCAAGCGCCATCTAC | 0.81 RPM ratio (pull-down/input)
GATGATTGTTCTCCCAGCTGATGAATTACCTATTTCGAGTAAACAAATTTTCCTAATCTTTCTGTTCAAGCGCCATCTAC | 1.15 RPM ratio (pull-down/input)
GATGATTGTTCTCCCAGCTGATGAATTTGGTAGCTCGAGTAAACAAATTTTCCTAATCTTTCTGTTCAAGCGCCATCTAC | 0.852 RPM ratio (pull-down/input)
GATGATTGTTCTCCCAGCTGATGAATTTCGAAAATCGAGTAAACAAATTTTCCTAATCTTTCTGTTCAAGCGCCATCTAC | 1.07 RPM ratio (pull-down/input)
GATGATTGTTCTCCCAGCTGATGAATTATCGGCCTCGAGTAAACAAATTTTCCTAATCTTTCTGTTCAAGCGCCATCTAC | 0.947 RPM ratio (pull-down/input)
GATGATTGTTCTCCCAGCTGATGAATTGGTCGGCTCGAGTAAACAAATTTTCCTAATCTTTCTGTTCAAGCGCCATCTAC | 0.809 RPM ratio (pull-down/input)
GATGATTGTTCTCCCAGCTGATGAATTCCAGCCATCGAGTAAACAAATTTTCCTAATCTTTCTGTTCAAGCGCCATCTAC | 0.85 RPM ratio (pull-down/input)
GATGATTGTTCTCCCAGCTGATGAATTGCACCGCTCGAGTAAACAAATTTTCCTAATCTTTCTGTTCAAGCGCCATCTAC | 1.04 RPM ratio (pull-down/input)
GATGATTGTTCTCCCAGCTGATGAATTGCCCAGATCGAGTAAACAAATTTTCCTAATCTTTCTGTTCAAGCGCCATCTAC | 0.91 RPM ratio (pull-down/input)
GATGATTGTTCTCCCAGCTGATGAATTTTCTTACTCGAGTAAACAAATTTTCCTAATCTTTCTGTTCAAGCGCCATCTAC | 0.975 RPM ratio (pull-down/input)
GATGATTGTTCTCCCAGCTGATGAATTTCCCTAGTCGAGTAAACAAATTTTCCTAATCTTTCTGTTCAAGCGCCATCTAC | 0.866 RPM ratio (pull-down/input)
GATGATTGTTCTCCCAGCTGATGAATTGCATTTATCGAGTAAACAAATTTTCCTAATCTTTCTGTTCAAGCGCCATCTAC | 1.77 RPM ratio (pull-down/input)
GATGATTGTTCTCCCAGCTGATGAATTAGGCATGTCGAGTAAACAAATTTTCCTAATCTTTCTGTTCAAGCGCCATCTAC | 0.883 RPM ratio (pull-down/input)
GATGATTGTTCTCCCAGCTGATGAATTATACTCATCGAGTAAACAAATTTTCCTAATCTTTCTGTTCAAGCGCCATCTAC | 1.03 RPM ratio (pull-down/input)
GATGATTGTTCTCCCAGCTGATGAATTTTATAATTCGAGTAAACAAATTTTCCTAATCTTTCTGTTCAAGCGCCATCTAC | 1.07 RPM ratio (pull-down/input)

Sequence | binding signal
GATGATTGTTCTCCCAGCTGATGAATTTCTGTCTTCGAGTAAACAAATTTTCCTAATCTTTCTGTTCAAGCGCCATCTAC | 0.89 RPM ratio (pull-down/input)
GATGATTGTTCTCCCAGCTGATGAATTATGCCTTTCGAGTAAACAAATTTTCCTAATCTTTCTGTTCAAGCGCCATCTAC | 1.04 RPM ratio (pull-down/input)
GATGATTGTTCTCCCAGCTGATGAATTAGGGAGATCGAGTAAACAAATTTTCCTAATCTTTCTGTTCAAGCGCCATCTAC | 0.804 RPM ratio (pull-down/input)
GATGATTGTTCTCCCAGCTGATGAATTAATGGATTCGAGTAAACAAATTTTCCTAATCTTTCTGTTCAAGCGCCATCTAC | 0.869 RPM ratio (pull-down/input)
GATGATTGTTCTCCCAGCTGATGAATTCTACTGATCGAGTAAACAAATTTTCCTAATCTTTCTGTTCAAGCGCCATCTAC | 0.862 RPM ratio (pull-down/input)
GATGATTGTTCTCCCAGCTGATGAATTCGAAAGGTCGAGTAAACAAATTTTCCTAATCTTTCTGTTCAAGCGCCATCTAC | 0.801 RPM ratio (pull-down/input)
GATGATTGTTCTCCCAGCTGATGAATTTATACAATCGAGTAAACAAATTTTCCTAATCTTTCTGTTCAAGCGCCATCTAC | 1.67 RPM ratio (pull-down/input)
GATGATTGTTCTCCCAGCTGATGAATTCAGGACCTCGAGTAAACAAATTTTCCTAATCTTTCTGTTCAAGCGCCATCTAC | 0.746 RPM ratio (pull-down/input)
GATGATTGTTCTCCCAGCTGATGAATTACCCTTGTCGAGTAAACAAATTTTCCTAATCTTTCTGTTCAAGCGCCATCTAC | 0.888 RPM ratio (pull-down/input)
GATGATTGTTCTCCCAGCTGATGAATTGGGTGCGTCGAGTAAACAAATTTTCCTAATCTTTCTGTTCAAGCGCCATCTAC | 0.968 RPM ratio (pull-down/input)
GATGATTGTTCTCCCAGCTGATGAATTTCGTCTCTCGAGTAAACAAATTTTCCTAATCTTTCTGTTCAAGCGCCATCTAC | 0.896 RPM ratio (pull-down/input)
GATGATTGTTCTCCCAGCTGATGAATTGTAGAGCTCGAGTAAACAAATTTTCCTAATCTTTCTGTTCAAGCGCCATCTAC | 0.783 RPM ratio (pull-down/input)
GATGATTGTTCTCCCAGCTGATGAATTAGTGTAATCGAGTAAACAAATTTTCCTAATCTTTCTGTTCAAGCGCCATCTAC | 1.54 RPM ratio (pull-down/input)
GATGATTGTTCTCCCAGCTGATGAATTTCCCCTGTCGAGTAAACAAATTTTCCTAATCTTTCTGTTCAAGCGCCATCTAC | 0.819 RPM ratio (pull-down/input)
GATGATTGTTCTCCCAGCTGATGAATTAGACAGGTCGAGTAAACAAATTTTCCTAATCTTTCTGTTCAAGCGCCATCTAC | 0.87 RPM ratio (pull-down/input)
GATGATTGTTCTCCCAGCTGATGAATTTCAAGTATCGAGTAAACAAATTTTCCTAATCTTTCTGTTCAAGCGCCATCTAC | 0.952 RPM ratio (pull-down/input)
GATGATTGTTCTCCCAGCTGATGAATTGGGGCCATCGAGTAAACAAATTTTCCTAATCTTTCTGTTCAAGCGCCATCTAC | 0.831 RPM ratio (pull-down/input)
GATGATTGTTCTCCCAGCTGATGAATTGTTGCGCTCGAGTAAACAAATTTTCCTAATCTTTCTGTTCAAGCGCCATCTAC | 1.48 RPM ratio (pull-down/input)
GATGATTGTTCTCCCAGCTGATGAATTGGTTTTATCGAGTAAACAAATTTTCCTAATCTTTCTGTTCAAGCGCCATCTAC | 1.14 RPM ratio (pull-down/input)
GATGATTGTTCTCCCAGCTGATGAATTTCTATATTCGAGTAAACAAATTTTCCTAATCTTTCTGTTCAAGCGCCATCTAC | 1.11 RPM ratio (pull-down/input)
GATGATTGTTCTCCCAGCTGATGAATTACGTGGATCGAGTAAACAAATTTTCCTAATCTTTCTGTTCAAGCGCCATCTAC | 0.967 RPM ratio (pull-down/input)

Sequence | binding signal
GATGATTGTTCTCCCAGCTGATGAATTTGCTGAGTCGAGTAAACAAATTTTCCTAATCTTTCTGTTCAAGCGCCATCTAC | 0.904 RPM ratio (pull-down/input)
GATGATTGTTCTCCCAGCTGATGAATTAGAGTCGTCGAGTAAACAAATTTTCCTAATCTTTCTGTTCAAGCGCCATCTAC | 0.879 RPM ratio (pull-down/input)
GATGATTGTTCTCCCAGCTGATGAATTGCCAGAGTCGAGTAAACAAATTTTCCTAATCTTTCTGTTCAAGCGCCATCTAC | 0.869 RPM ratio (pull-down/input)
GATGATTGTTCTCCCAGCTGATGAATTCGCAATTTCGAGTAAACAAATTTTCCTAATCTTTCTGTTCAAGCGCCATCTAC | 1.05 RPM ratio (pull-down/input)
GATGATTGTTCTCCCAGCTGATGAATTTTCGACCTCGAGTAAACAAATTTTCCTAATCTTTCTGTTCAAGCGCCATCTAC | 0.818 RPM ratio (pull-down/input)
GATGATTGTTCTCCCAGCTGATGAATTATCATCCTCGAGTAAACAAATTTTCCTAATCTTTCTGTTCAAGCGCCATCTAC | 0.855 RPM ratio (pull-down/input)
GATGATTGTTCTCCCAGCTGATGAATTCCCGGTCTCGAGTAAACAAATTTTCCTAATCTTTCTGTTCAAGCGCCATCTAC | 0.751 RPM ratio (pull-down/input)
GATGATTGTTCTCCCAGCTGATGAATTCATTTACTCGAGTAAACAAATTTTCCTAATCTTTCTGTTCAAGCGCCATCTAC | 1.05 RPM ratio (pull-down/input)
GATGATTGTTCTCCCAGCTGATGAATTCACTCCGTCGAGTAAACAAATTTTCCTAATCTTTCTGTTCAAGCGCCATCTAC | 0.838 RPM ratio (pull-down/input)
GATGATTGTTCTCCCAGCTGATGAATTATACAGATCGAGTAAACAAATTTTCCTAATCTTTCTGTTCAAGCGCCATCTAC | 1.14 RPM ratio (pull-down/input)
GATGATTGTTCTCCCAGCTGATGAATTCTTTCTGTCGAGTAAACAAATTTTCCTAATCTTTCTGTTCAAGCGCCATCTAC | 0.802 RPM ratio (pull-down/input)
GATGATTGTTCTCCCAGCTGATGAATTCGCGTGTTCGAGTAAACAAATTTTCCTAATCTTTCTGTTCAAGCGCCATCTAC | 0.899 RPM ratio (pull-down/input)
GATGATTGTTCTCCCAGCTGATGAATTAGAGGTATCGAGTAAACAAATTTTCCTAATCTTTCTGTTCAAGCGCCATCTAC | 0.945 RPM ratio (pull-down/input)
GATGATTGTTCTCCCAGCTGATGAATTAAGGTGGTCGAGTAAACAAATTTTCCTAATCTTTCTGTTCAAGCGCCATCTAC | 0.796 RPM ratio (pull-down/input)
GATGATTGTTCTCCCAGCTGATGAATTCCTCGAGTCGAGTAAACAAATTTTCCTAATCTTTCTGTTCAAGCGCCATCTAC | 0.84 RPM ratio (pull-down/input)
GATGATTGTTCTCCCAGCTGATGAATTTGATGCTTCGAGTAAACAAATTTTCCTAATCTTTCTGTTCAAGCGCCATCTAC | 1.09 RPM ratio (pull-down/input)
GATGATTGTTCTCCCAGCTGATGAATTGAGCACTTCGAGTAAACAAATTTTCCTAATCTTTCTGTTCAAGCGCCATCTAC | 0.845 RPM ratio (pull-down/input)
GATGATTGTTCTCCCAGCTGATGAATTCTCTGGGTCGAGTAAACAAATTTTCCTAATCTTTCTGTTCAAGCGCCATCTAC | 0.818 RPM ratio (pull-down/input)
GATGATTGTTCTCCCAGCTGATGAATTGGCTCTCTCGAGTAAACAAATTTTCCTAATCTTTCTGTTCAAGCGCCATCTAC | 0.875 RPM ratio (pull-down/input)
GATGATTGTTCTCCCAGCTGATGAATTTAGCCTTTCGAGTAAACAAATTTTCCTAATCTTTCTGTTCAAGCGCCATCTAC | 0.954 RPM ratio (pull-down/input)
GATGATTGTTCTCCCAGCTGATGAATTTGCACATTCGAGTAAACAAATTTTCCTAATCTTTCTGTTCAAGCGCCATCTAC | 1.12 RPM ratio (pull-down/input)
